In PubChem BioAssay AID493078 (National Center for Advancing Translational Sciences (NCATS), 2011):
This list was built around the results that the source calls inconclusive (neither active nor inactive); the mix of calls is not that of the screen. Potencies of inconclusive entries are left out as doubtful fits. The source made the active and inactive calls. Calls follow the shape of the dose curve; as a rule, active = well fitted activation curve with a large enough effect; inconclusive = small, poorly fitted or top-dose-only effect; inactive = flat fitted curve, though single readings scatter.

Target: Thyrotropin-releasing hormone receptor (Homo sapiens) (UniProt P34981)
Sequence of UniProt P34981 (P34981 whole entry, looked up): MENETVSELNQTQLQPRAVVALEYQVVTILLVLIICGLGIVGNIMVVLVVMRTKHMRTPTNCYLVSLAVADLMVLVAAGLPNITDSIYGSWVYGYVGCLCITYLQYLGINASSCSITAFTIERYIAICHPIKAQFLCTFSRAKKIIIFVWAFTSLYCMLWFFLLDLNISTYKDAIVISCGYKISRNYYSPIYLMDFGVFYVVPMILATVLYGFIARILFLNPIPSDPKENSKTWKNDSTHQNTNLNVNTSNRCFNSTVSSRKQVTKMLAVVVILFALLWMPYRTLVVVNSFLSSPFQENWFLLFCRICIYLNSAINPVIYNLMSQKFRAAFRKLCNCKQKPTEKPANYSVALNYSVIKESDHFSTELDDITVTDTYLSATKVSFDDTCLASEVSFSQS
Assay: qHTS for Small Molecule Agonists and Allosteric Enhancers of Human TRH Receptor: Confirmation Screen for Agonists; also: nearly all actives have a fitted effect of over 75% in size; as to activation: 0% is about no effect
Settings: TRHR-expressing cells, agonist activation read-out; series mostly up to 46.1 µM; activation: at the top concentration
Method in brief: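 Kinetic intracellular calcium measurement, 1 cycle/sec, Ex 480/Em 530, in TRHR cells with fluo-8 dye. Agonist activity taken from the post-compound phase, preceding the 10 nM TRH (EC20) potentiator phase.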
Potency is read from the fitted curve at half-maximal effect; tags tell the direction and shape of the fitted curve.

| SMILES | Potency | activation |
| --- | --- | --- |
| CCOC(=O)/C(C#N)=C(C)/C=C1\Sc2ccccc2N1CC | active: 20.6 µM | – |
| Cc1ccc(C)c(NC(=O)C[n+]2ccccc2)c1 | – | inactive: -0.57% |
| Cc1nc(C)n(CC(O)COc2ccc3cc(Br)ccc3c2)n1 (stereo not given) | – | inactive: 6.07% |
| COc1cccc(N=C2NC(=O)/C(=C/c3cc([N+](=O)[O-])ccc3O)S2)c1 | inconclusive [activator, partial curve] | – |
| CCCCC(=O)N(c1ccc(C(=O)O)cc1)c1nc(-c2ccc(Cl)cc2)c(CC)s1 | inconclusive [activator, partial curve, poor fit] | – |
| Cc1ccccc1NC(=S)N(CCN(C)C)C(C)c1cccnc1 (stereo not given) | – | inactive: -0.71% |
| Cc1nn(-c2ccccc2)c(N2CCCC2)c1/C=N/NC(=O)c1ccccc1O | inconclusive [activator, partial curve, poor fit] | – |
| COc1ccc(Cl)cc1S(=O)(=O)NC(C)C(=O)NCCCn1ccnc1 (stereo not given) | – | inactive: -0.608% |
| COc1cc(C(=S)N2CCOCC2)ccc1OC(=O)c1cccc(C)c1 | – | inactive: 0.155% |
| CCOc1cc(/C=C2/SC(=S)N(CC3CCCO3)C2=O)ccc1O (stereo not given) | active: 16.4 µM | – |
| Cc1cccc2cc3c(N)c(C(=O)N4CCc5ccccc54)sc3nc12 | active: 18.4 µM | – |
| CCOC(=O)CN1C(=O)S/C(=C/C=C/c2ccc(N(C)C)cc2)C1=O | inconclusive [activator, partial curve] | – |
| O=C(O)c1cccc(-c2ccc(/C=c3/sc4nc5ccccc5n4c3=O)o2)c1 | inconclusive [activator, full curve] | – |
| O=C(N/N=C/c1c(O)ccc2ccccc12)c1ccc(CO)nc1 | inconclusive [activator, partial curve] | – |
| CCC(C)(C)NC(=O)C(c1cccn1C)N(C(=O)Cn1nnc2ccccc21)c1ccc(F)cc1 (stereo not given) | inconclusive [activator, partial curve, poor fit] | – |
| CC(C)Cc1ccc(S(=O)(=O)Nc2cccnc2)cc1 | – | inactive: 0.57% |
| CC(C)c1ccccc1N=C1SCCN1C1CCS(=O)(=O)C1 (stereo not given) | inconclusive [activator, partial curve, poor fit] | – |
| COc1ccccc1N1C(C)=CC(=C(C#N)c2nc3ccccc3s2)C=C1C | active: 18.4 µM | – |
| Cc1ccc(NC(=O)[C@@H]2CCC(=O)N2C2OC(=O)c3ccccc32)cc1Cl (stereo not given in full) | – | inactive: 7.4% |
| O=c1ccc2cc3c4c(c2o1)CCCN4CCC3 | active: 20.6 µM | – |

| SMILES | Potency | activation |
| --- | --- | --- |
| Cc1ccccc1OCC(O)CN1CCN(c2ccc(Cl)cc2)CC1 (stereo not given) | – | inactive: -0.456% |
| Cc1nn(C)c(C(=O)NC(=S)Nc2ccccc2Br)c1Cl | active: 13 µM | – |
| CS(=O)(=O)c1ccc(Cl)c(NC(=O)CN2CCCC2c2ccc3c(c2)OCCCO3)c1 (stereo not given) | – | inactive: 0.985% |
| CC1Cc2ccccc2N1C(=O)CSc1nnc2sc3ccccc3n12 (stereo not given) | – | inactive: -0.71% |
| CCN(CC)CCCNC(=S)N1CCN(c2nc(-c3ccccc3)cs2)CC1 | inconclusive [activator, partial curve, poor fit] | – |
| O=C(/C=C/c1cn(CC(O)CN2CCCCC2)c2ccccc12)c1cccs1 (stereo not given) | inconclusive [activator, partial curve] | – |
| CCOc1ccccc1N1CC(C(=O)Nc2cccc(S(=O)(=O)N3CCCCC3)c2)CC1=O (stereo not given) | – | inactive: 3.89% |
| Cc1csc(CN(C)C(=O)CC2C(=O)NCCN2CC(C)(C)C)n1 (stereo not given) | – | inactive: 0.768% |
| O=C1/C(=C/c2ccc(O)cc2)SC(=S)N1CC1CCCO1 (stereo not given) | inconclusive [activator, partial curve] | – |
| CCOc1ccc(-c2csc3ncn(-c4ccc(OC)cc4)c(=O)c23)cc1 | – | inactive: 0.659% |
| Cc1ccccc1N1C(=O)c2cccc3c(N(C)CCO)ccc(c23)C1=O | active: 18.4 µM | – |
| O=C(N/N=C/c1c(O)n(-c2ccccc2Cl)c(=O)c2ccccc12)c1cccnc1 | inconclusive [activator, partial curve] | – |
| COc1cc(/C=C2\SC(=S)N(NS(=O)(=O)c3ccc(C)cc3)C2=O)ccc1O | inconclusive [activator, partial curve] | – |
| COc1cc(/C=C(\C#N)c2nc3ccccc3n2C)cc(OC)c1O | active: 18.4 µM | – |
| CN1CCS/C1=C\C=C1/SC(=S)N(CC(=O)O)C1=O | active: 20.6 µM | – |
| CC(=O)Nc1nc2n(n1)C(c1ccccc1)C=C(c1ccccc1)N2 (stereo not given) | inconclusive [activator, partial curve, poor fit] | – |
| O=c1[nH]c2cccnc2n(CCNc2ncc(C(F)(F)F)cc2Cl)c1=O | – | inactive: -0.203% |
| CCOc1ccc(NC(C)C(=O)N/N=C/c2cccs2)cc1 (stereo not given) | – | inactive: 1.24% |
| COC(=O)/C(C#N)=C1/C=Cc2ccccc2N1 | inconclusive [activator, partial curve, poor fit] | – |
| CCOC(=O)C1=C(O)/C(=C/c2cc(OC)c(O)c(OC)c2)SC1=Nc1ccc(OC)cc1 | inconclusive [activator, partial curve, poor fit] | – |
